Test results published in PubChem BioAssay AID588453 (National Center for Advancing Translational Sciences (NCATS), 2011).
Where “and” joins values, the source holds several entries; their conditions need not be identical. Equal values may be shown once. Among all 390,000 compounds or so, about 4,000 (1%) were called active. This list was built around the results that the source calls inconclusive (neither active nor inactive); the mix of calls is not that of the screen. Calls follow the shape of the dose curve; as a rule, active = well fitted inhibition curve with a large enough effect; inconclusive = small, poorly fitted or top-dose-only effect; inactive = no such curve, though single readings can be large or run the other way. Where the call is inconclusive, the potency comes from a doubtful curve fit.

Biological target: Thioredoxin reductase 1, cytoplasmic (Rattus norvegicus) (UniProt O89049)
UniProt O89049, sequence (O89049 whole entry, looked up): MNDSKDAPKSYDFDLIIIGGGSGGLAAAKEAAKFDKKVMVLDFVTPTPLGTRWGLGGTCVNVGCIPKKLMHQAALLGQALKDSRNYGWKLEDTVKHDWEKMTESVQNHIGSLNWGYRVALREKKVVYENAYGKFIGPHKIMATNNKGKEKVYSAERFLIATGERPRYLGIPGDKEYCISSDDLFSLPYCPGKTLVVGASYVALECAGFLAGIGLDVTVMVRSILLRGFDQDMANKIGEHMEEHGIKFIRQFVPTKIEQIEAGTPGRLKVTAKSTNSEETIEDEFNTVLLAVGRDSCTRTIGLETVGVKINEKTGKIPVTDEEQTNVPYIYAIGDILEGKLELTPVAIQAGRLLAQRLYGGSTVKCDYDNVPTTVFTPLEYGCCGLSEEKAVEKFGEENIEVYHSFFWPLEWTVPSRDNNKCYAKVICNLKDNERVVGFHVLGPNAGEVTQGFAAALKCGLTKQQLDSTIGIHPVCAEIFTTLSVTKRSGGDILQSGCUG
Test: qHTS Assay for Inhibitors of Mammalian Selenoprotein Thioredoxin Reductase 1 (TrxR1): qHTS; also: nearly all actives have a fitted effect of over 65% in size
Details: recombinant rTrxR1, NADPH fluorescence consumption, selenite substrate; series mostly up to 114 µM
Summary of the method: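 Rat TrxR1 (90 nM in the dispensed reagent) was pre-reduced with 400 uM NADPH for 5 min at room temperature, then incubated with compound for 15 min. After 400 uM selenite was added, NADPH fluorescence (Ex 340/Em 450 nm) was followed for 8 min.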
% is scaled to controls: 0 for no effect and ±100 for the full control effect; potency is read from the fitted curve at half-maximal effect; tags tell the direction and shape of the fitted curve.

SMILES | Potency | activity change, negative = inhibition
COc1ccc2cc3cc(C(=O)NCC4CCCO4)oc3nc2c1 (stereo not drawn) | inconclusive: 63.1 µM [inhibitor, single point] | –
CCOc1ccc(NC2C=CS(=O)(=O)C2)cc1 (stereo not drawn) | inconclusive: 25.1 µM [inhibitor, partial curve, poor fit] | –
CCN(CC)C(C)CN1c2ccccc2Sc2ccccc21 (stereo not drawn) | inconclusive: 29.9 µM [inhibitor, single point] | –
COc1cccc(C(C2C(=O)CC(C)(C)CC2=O)C2C(=O)CC(C)(C)CC2=O)c1 | inconclusive: 39.8 µM [inhibitor, partial curve] | –
O=C(c1ccccc1)c1c2c(cc3sc4ccccc4[n+]13)-c1cccc3cccc-2c13 | inconclusive: 44.7 µM [inhibitor, partial curve] | –
COc1ccc(C2=CSC3=C(C(=O)c4cccc(S(=O)(=O)N(C)C)c4)CCN23)cc1 | inconclusive: 11.2 µM [inhibitor, partial curve, poor fit] | –
COc1ccc(-c2csc(-c3ccc(O)cc3)n2)cc1 | active: 56.2 µM | –
NC(=O)COc1ccc2cc(-c3ccccc3)c(=O)oc2c1 | inconclusive: 22.4 µM [inhibitor, single point] | –
Cc1ccc2oc(=O)c3cc(C(=O)NCCCN4CCCCCC4)sc3c2c1 | inconclusive: 15.8 µM [inhibitor, full curve] | –
O=C(O)CCNC(=O)/C(=C/c1ccco1)NC(=O)c1ccco1 | inconclusive: 31.6 µM [inhibitor, partial curve, poor fit] | –
CC(C)(C)C(=O)/C=C/Nc1ccccc1O | inconclusive: 10 µM [inhibitor, partial curve, poor fit] | –
Cc1cc(C)nc(Sc2nc(Cl)nc(N(c3ccccc3)c3ccccc3)n2)n1 | inconclusive: 12.6 µM [inhibitor, full curve] | –
CCOC(=O)C1CCN(C(c2ccccn2)c2c(C)[nH]c3ccccc23)CC1 (stereo not drawn) | active: 2.51 µM | –
COCC(C)NC(=S)Nc1ccccc1[N+](=O)[O-] (stereo not drawn) | inconclusive: 20 µM [inhibitor, partial curve, poor fit] | –
CCOC(=O)c1cc([N+](=O)[O-])c([N+](=O)[O-])cc1NC(C)=O | active: 3.16 µM | –
CN(Cc1ccon1)C(=O)CC1C(=O)NCCN1Cc1ccccc1C(F)(F)F (stereo not drawn) | inconclusive: 50.1 µM [inhibitor, partial curve] | –
COc1ccc2[nH]c(=O)c(C(c3nnnn3C(C)(C)C)N(Cc3ccco3)CC3CCCO3)cc2c1 (stereo not drawn) | inconclusive: 22.4 µM [inhibitor, single point] | –
CC(=O)O[C@]1(C(C)=O)CC[C@H]2[C@@H]3C=C(Cl)C4=CC(=O)CC[C@]4(C)[C@H]3CC[C@@]21C | inactive | –
COc1ccccc1NC(=O)Cn1c(=O)c(CNc2ccccc2)cc2cc(OC)c(OC)cc21 | inconclusive: 5.62 µM [inhibitor, partial curve, poor fit] | –
CCCCN(CCCC)c1nc2ccccc2nc1C(C#N)C(=O)NCCCOC (stereo not drawn) | active: 39.8 µM | –
c1cncc(-c2nc(-c3ccco3)cs2)c1 | active: 35.5 µM | –
CCn1nc(C)c2c(-c3ccccc3)cc(=O)n(C(C)C(=O)NCc3ccccc3OC)c21 (stereo not drawn) | inactive | –
O=C(c1nc2n(n1)C(c1ccc(Cl)cc1)C=C(c1ccccc1)N2)N1CCOCC1 (stereo not drawn) | inconclusive: 39.8 µM [inhibitor, single point] | –

SMILES | Potency | activity change, negative = inhibition
Cc1csc(NC(=O)CSc2nnc(-c3cc(C)on3)o2)n1 | inactive | –
COc1ccc(/C=C2\SC(=NCc3ccccc3)NC2=O)cc1 | inactive | –
COCCCNC(=O)c1ccc2c3c(onc13)-c1ccccc1C2=O | inactive | –
O=C(CCS(=O)(=O)c1ccccc1)Nc1nc2cc3c(cc2s1)OCCO3 | inconclusive: 20 µM [inhibitor, full curve] | –
N#C/C(=C\c1cc(Cl)cc(Cl)c1O)C(=O)NC1CCCCC1 | active: 79.4 µM | –
COc1ccc(S(=O)(=O)CC(=O)c2cc(C)c(O)c(C)c2)cc1 | – | inactive: 26.7% [at 2.29 µM]
Cc1cccc(NC(=S)NCc2ccco2)n1 | inconclusive: 28.2 µM [inhibitor, partial curve] | –
O=c1c2oc3ccccc3c2[nH]c(=S)n1-c1ccccc1 | inconclusive: 22.4 µM [inhibitor, full curve, poor fit] | –
COc1ccc2c(c1)CC/C(=C\c1ccc(OC)c(Cn3cccn3)c1)C2=O | inactive | –
O=C(O)c1ccccc1C(=O)NC1=NN(c2ccccc2)CC1 | inconclusive: 79.4 µM [inhibitor, single point] | –
COc1ccccc1C1C(C#N)=C(N)Oc2cc(C)n(Cc3ccccn3)c(=O)c21 (stereo not drawn) | inactive | –
CCCCN1C(=O)C(=O)N(CC(=O)Nc2ccccc2C(C)=O)C1=O | inactive | –
CC(=O)c1cccc(NC(=S)NNC(=O)c2ccco2)c1 | inactive | –
Cc1noc2ncnc(Sc3ccc(Br)cc3)c12 | inconclusive: 31.6 µM [inhibitor, single point] | –
CCN1CCN(c2cc(C)c3cc(NC(=S)NCCCOC)ccc3n2)CC1 | inconclusive: 56.2 µM [inhibitor, partial curve, poor fit] | –
CCc1ccc(-c2nc(CS(=O)CC(=O)NCCc3ccccc3)c(C)o2)cc1 (stereo not drawn) | inconclusive: 50.1 µM [inhibitor, partial curve] | –
CN(C)S(=O)(=O)c1ccc2c(c1)/C(=C/c1cc3c([nH]1)CCCC3)C(=O)N2 | inactive and inconclusive: 44.7 µM [inhibitor, partial curve] and inconclusive: 15 µM [inhibitor, partial curve] | –
CC1(C)CC(=O)C2=C(C1)NC1=C(C(=O)c3ccccc31)C2c1ccc(Cl)cc1 (stereo not drawn) | inconclusive: 17.8 µM [inhibitor, full curve] | –
S=C(Nc1ccc2c(c1)OCO2)Nc1ccccc1Cl | inconclusive: 70.8 µM [inhibitor, partial curve] | –
N#CC(C#N)=C1c2cc(S(N)(=O)=O)ccc2-c2ccc(S(N)(=O)=O)cc21 | active: 10 µM | –
CCNC(=S)NNC(=O)c1cc(CC(C)C)nc2ccccc12 | inconclusive: 20 µM [inhibitor, partial curve, poor fit] | –
CCCCCCC[n+]1ccc(/C=C/c2c[nH]c3ccccc23)c2ccccc21 | inconclusive: 79.4 µM [inhibitor, single point] | –
O=C(O)CCc1ccc(-c2ccc(Br)cc2)n1-c1ccc(O)cc1 | inconclusive: 39.8 µM [inhibitor, partial curve, poor fit] | –

SMILES | Potency | activity change, negative = inhibition
CCc1nn(CCCC(=O)N2CCN(c3cccc(OC)c3)CC2)c(=O)c2cc3occc3n12 | inactive | –
CCOC(=O)c1c(NC(=S)Nc2ccccc2)sc2c1CCN(C)C2 | inconclusive: 15.8 µM [inhibitor, partial curve] | –
Cc1c(C(=O)O)oc2c1-c1nn(Cc3ccc(Cl)cc3)cc1CC2 | inconclusive: 20 µM [inhibitor, partial curve, poor fit] | –
CN1CCN(C(=O)c2ccc(CS(=O)(=O)c3c(Cl)cccc3Cl)o2)CC1 | inconclusive: 79.4 µM [inhibitor, single point] | –
COc1ccc(CNC(=O)Nc2cn(CC(C)C)c(=O)c3ccccc23)cc1 | inactive | –
CC(C)CNC(=O)[C@H]1N2C(=O)c3ccccc3C2SC1(C)C (stereo partly drawn) | inconclusive: 39.8 µM [inhibitor, single point] | –
Cc1c(C)c2c(OCC(=O)NCCCO)cc3c(c2oc1=O)CCC(C)(C)O3 | inconclusive: 63.1 µM [inhibitor, single point] | –
COc1cccc(NC(=O)CSc2nnc(-c3ccco3)c(-c3ccco3)n2)c1 | active: 7.08 µM | –
Cc1nn(-c2ccccc2)c2c1C(c1ccc(Br)s1)C(C#N)=C(N)O2 (stereo not drawn) | inconclusive: 12.6 µM [inhibitor, partial curve, poor fit] | –
[O-][n+]1cccc2cccc(O)c21 | inactive | –
C(=C\c1c[nH]c2ccccc12)/c1ccnc2ccccc12 | inactive | –
O=C(NCc1ccco1)c1cc(S(=O)(=O)N2CCOCC2)ccc1Br | inconclusive: 31.6 µM [inhibitor, full curve] | –
C/C=C/C=N/NC(=O)CN(c1ccc(Br)cc1)S(=O)(=O)c1ccccc1 | inconclusive: 44.7 µM [inhibitor, partial curve] | –
O=C(N/N=C/c1cc([N+](=O)[O-])ccc1O)c1c[nH]c2ccccc12 | inactive | –
Cc1ccccc1NS(=O)(=O)c1cc2c(cc1C)NC(=O)CO2 | inactive | –
O=C1NC(c2ccc(Br)cc2)Nc2sc3c(c21)CCC3 (stereo not drawn) | inconclusive: 15.8 µM [inhibitor, full curve] | –
CCOC(=O)/C=C(\C)Sc1cc(O)c2ccccc2c1O | inconclusive: 4.47 µM [inhibitor, full curve, poor fit] | –
CCCCCCCCN1[C@@H](CC(C)=O)c2ccc(/C=C/C(C)=O)cc2S1(=O)=O | inconclusive: 79.4 µM [inhibitor, single point] | –
COc1ccc(C(=O)C2C(c3ccc(-c4ccccc4[N+](=O)[O-])o3)NC(=O)NC2(O)C(F)(F)F)cc1 (stereo not drawn) | inconclusive: 56.2 µM [inhibitor, single point] | –
CN1CCN(Cc2c(O)ccc3cc(Br)ccc23)CC1 | active: 35.5 µM | –
Cc1nn(C)c2c1c(-c1ccccc1)cc(=O)n2CC(=O)NC(C)c1ccccc1 (stereo not drawn) | inactive | –
Cc1ccc(/C=N/NC(=O)C(=O)N/N=C/c2ccc(C)o2)o1 | inconclusive: 79.4 µM [inhibitor, partial curve, poor fit] | –
